Results from the supplement of paper PMC3334620.
Whole data set: some 33,000 sequences, median “E-score (-0.5 to 0.5)” near -0.012, cut for the highest 2% near 0.27. The list shows a part of the results.

Each sequence was assayed against T1, Vhr1 (UniProt P40522) (assay: PBM E-score (8-mer binding enrichment) (E-score (-0.5 to 0.5)); higher = stronger / more preferred TF binding; most listed sequences are background and not binding sites). Details: protein concentration: 200 nM; construct: GST-full length.
T1 sequence: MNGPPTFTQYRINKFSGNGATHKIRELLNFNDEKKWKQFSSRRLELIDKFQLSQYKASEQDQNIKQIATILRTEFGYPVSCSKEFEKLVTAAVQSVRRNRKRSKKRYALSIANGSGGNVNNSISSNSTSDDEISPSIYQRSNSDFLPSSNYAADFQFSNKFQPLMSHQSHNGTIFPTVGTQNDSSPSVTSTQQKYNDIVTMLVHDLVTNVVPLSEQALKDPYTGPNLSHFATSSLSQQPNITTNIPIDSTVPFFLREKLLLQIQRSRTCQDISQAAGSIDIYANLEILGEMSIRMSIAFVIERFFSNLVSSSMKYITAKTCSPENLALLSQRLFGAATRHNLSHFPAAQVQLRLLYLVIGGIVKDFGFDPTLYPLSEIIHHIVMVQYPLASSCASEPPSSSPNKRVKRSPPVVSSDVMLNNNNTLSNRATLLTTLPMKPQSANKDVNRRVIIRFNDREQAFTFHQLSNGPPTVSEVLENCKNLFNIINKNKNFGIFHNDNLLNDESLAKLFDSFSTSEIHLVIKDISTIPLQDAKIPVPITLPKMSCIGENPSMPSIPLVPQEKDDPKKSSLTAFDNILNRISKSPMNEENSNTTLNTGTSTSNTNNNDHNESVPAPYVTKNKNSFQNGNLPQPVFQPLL
Summary of the method: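 Yeast transcription factors, full-length or as DNA-binding domains, were expressed with a GST tag using PURExpress in vitro transcription/translation. At about 100-200 nM they were applied to universal all-10-mer Agilent arrays, double-stranded by primer extension on fresh or once-stripped slides. Fluorescent anti-GST detected bound protein, and masliner normalised the scans. E-scores for ungapped eight-base words, pooled with reverse complements, came from the Universal PBM Analysis Suite.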

Row | Sequence | PBM E-score
1 | TACTTATA | -0.0199
2 | CATGTCGA | 0.0467
3 | TAATTTGA | -0.288
4 | AAACCTTT | -0.27
5 | ATACGTTG | 0.0231
6 | CGCATCAC | -0.0716
7 | ATCTCGCC | 0.0271
8 | TCCGGCCA | -0.194
9 | ATCAATAA | 0.0138
10 | CGCTGCGC | -0.0366
11 | AAGTCGAA | -0.147
12 | CGTCAAAC | -0.198
13 | AACCGCTA | 0.0759
14 | AACCAATT | 0.0547
15 | AAGCTAGT | -0.0022
16 | CTTTGAAA | -0.0938
17 | TCAGTCCA | -0.18
18 | GCTGTCCA | 0.129
19 | CGCAGGCG | -0.0219
20 | ACGAGACC | 0.00017
21 | AGCGATAG | -0.06
22 | CCATGTTA | 0.0466
23 | CCTCGTAA | 0.0858
24 | AACTTCTA | -0.275
25 | TAATACCA | 0.24

Row | Sequence | PBM E-score
26 | AGCGTCGG | -0.0578
27 | ACAGAGAG | -0.134
28 | CCAGTTTA | -0.0407
29 | CAGGGCGG | 0.0854
30 | AACAACGA | 0.106
31 | GCGGTCAC | -0.00992
32 | AGGTCACA | 0.0779
33 | AATGACAA | -0.0336
34 | TAGGCGAA | -0.0941
35 | AGGACCTA | -0.0256
36 | AGTCTGTC | -0.22
37 | ACTAGTGG | -0.0245
38 | ATAGCAAC | 0.0326
39 | AAGAGGGA | -0.21
40 | CGACGCAA | -0.00998
41 | TCGCCGCA | -0.0173
42 | AGAGACGG | 0.0592
43 | AGGTGTGA | 0.18
44 | ACTGAACT | 0.00624
45 | AGGCTGCA | -0.203
46 | GACCTATA | 0.186
47 | CAGGTTGC | 0.0612
48 | CCGGCTAG | -0.272
49 | GGCCACCC | 0.0977
50 | GGGAGAAA | -0.157

Row | Sequence | PBM E-score
51 | GTGTATTA | 0.187
52 | AGTGCACT | -0.0722
53 | CACATTGG | -0.0497
54 | ATCAATCA | 0.248
55 | CGGCTGAA | 0.0611
56 | ATCTGGAG | -0.171
57 | TAGGTTGA | 0.0773
58 | CCGTGTGC | 0.127
59 | GCAAGACC | -0.236
60 | CCTTCGGC | -0.0703
61 | CGCAGCCC | -0.0482
62 | GGACAGCC | 0.119
63 | GGCCGACA | -0.138
64 | AGCGGCCG | -0.07
65 | CGGCTTCC | 0.1
66 | AACCCTCA | -0.156
67 | GCGCTAGC | -0.157
68 | TGCTGAAA | -0.167
69 | AGCGCATC | -0.208
70 | CATCGCGG | 0.00396
71 | ATGCCATG | 0.024
72 | CTGTCTCC | 0.0737
73 | ACGCTCCT | -0.065
74 | TACAGGTA | 0.0714
75 | AAATCACT | 0.149

Row | Sequence | PBM E-score
76 | AAACCGGC | 0.081
77 | CCTATCAC | -0.024
78 | GCTTGCAC | -0.0624
79 | CGAGACGA | -0.023
80 | GGCGCCCC | -0.0447
81 | ATTAGGCA | -0.0874
82 | AGGAATAT | 0.0348
83 | GTGCTAGA | -0.075
84 | GGAAAAAC | -0.0244
85 | GGCATTCA | -0.14
86 | GCAGTGAC | 0.222
87 | CACGCGTA | -0.0315
88 | CTGTACCA | 0.0202
89 | AATGCTGC | -0.0845
90 | ATGACGTG | -0.0163
91 | ACGAAGCC | -0.0181
92 | GACCACGA | 0.0877
93 | TCTATGCA | 0.00098
94 | ACACTAAG | -0.0412
95 | GAACATCC | 0.0511
96 | CCCATACC | 0.119
97 | AACTAGAT | -0.0779
98 | GACGGCGC | -0.058
99 | AGCGCAAA | -0.0778
100 | ATAGTAAT | 0.265

Row | Sequence | PBM E-score
101 | AGACCAGG | -0.174
102 | AGTTACAA | 0.127
103 | CGTCCTAC | -0.0682
104 | TCCTTACA | -0.136
105 | GCCACGCA | 0.0308
106 | AAGTGTGA | 0.0182
107 | ATCTGGAA | 0.0976
108 | CCGTACAC | 0.16
109 | CAAGGGGG | -0.0997
110 | CTCGTTAA | 0.067
111 | AATTCGGA | 0.0232
112 | CAACGTTG | 0.0963
113 | GGCGTCCA | -0.172
114 | ATCTTTGC | 0.00796
115 | ACGTTTAA | -0.126
116 | AGTCAAAC | 0.0301
117 | GCAAACAA | 0.0795
118 | ACGGGTAT | 0.173
119 | CAACATCG | 0.0602
120 | GGCAACTA | 0.0177
121 | ACATAGGG | 0.0435
122 | GCTTTACA | -0.215
123 | CGGATCAG | 0.181
124 | GATAAACA | 0.082
125 | AGAATACT | 0.0167

Row | Sequence | PBM E-score
126 | AACTAGTA | 0.0154
127 | AAGTGTCC | -0.305
128 | CAACCAGA | 0.142
129 | AGCCTTGG | -0.149
130 | CCCAGAAG | 0.0196
131 | CGAGGCTA | -0.0547
132 | CAAGTAAC | 0.0536
133 | CAACTAAA | -0.00523
134 | AACGAGTT | -0.117
135 | CCCATTGA | -0.115
136 | GCCATCAC | -0.0422
137 | ATGTATGA | 0.25
138 | GCACTCTA | -0.101
139 | AAACTTTG | -0.161
140 | AACGAAAC | 0.0391
141 | GGCGTCAC | -0.149
142 | GGGCCCTA | -0.175
143 | ACGATCAG | 0.161
144 | CTGAGCCA | 0.247
145 | TGAAAGCA | -0.129
146 | AACATCTC | -0.155
147 | GCTCCAAC | 0.0292
148 | GTAACCTA | -0.0297
149 | CTTGATAC | -0.0827
150 | GAGCACTC | -0.0397

Row | Sequence | PBM E-score
151 | GGACACCA | 0.147
152 | CAGGCGCC | 0.0921
153 | GCCATAAC | -0.062
154 | AAGCGCAC | -0.0714
155 | AGGATTAC | -0.0618
156 | ATCGCCAC | 0.0747
157 | CTTCCACA | -0.145
158 | CCTAAAAC | -0.29
159 | TACTCATA | 0.222
160 | ATGTTAAG | -0.0427
161 | ACGAGCTA | -0.135
162 | GAAATCCC | -0.214
163 | GGTCTGGA | -0.071
164 | TCCCGCGA | 0.115
165 | ACTTATGC | -0.0166
166 | GAGATATC | -0.0534
167 | CGCCGTAG | -0.00474
168 | GGCGAACC | 0.101
169 | CAAAACTC | 0.00076
170 | GCCCGCTA | -0.183
171 | CGAATTAC | -0.128
172 | TGATGACA | 0.0316
173 | AGGGTGCG | -0.0564
174 | CGGGTCCA | -0.11
175 | CCGCGCGG | 0.346

Row | Sequence | PBM E-score
176 | ACAATACA | 0.0254
177 | ACCAATAC | 0.107
178 | TTAACAAA | -0.168
179 | CGATACAA | -0.0317
180 | AGAGAGCA | -0.0395
181 | CACAAATA | 0.0469
182 | GCGTCGCA | 0.0903
183 | AGGAGCGG | -0.187
184 | AAGGCCAC | -0.111
185 | CCACCAGC | 0.198
186 | GACGCCGA | 0.206
187 | GCCGGGAC | -0.195
188 | CCCCATTC | -0.0459
189 | GAAACTGC | -0.218
190 | CGAGTTCC | 0.0292
191 | TAATCATA | 0.314
192 | ATGCCACA | 0.114
193 | GGAGGTAC | -0.0892
194 | AACAGCAT | 0.0405
195 | ATAGGGCA | -0.231
196 | CCATACCG | 0.129
197 | TATGAATA | -0.0433
198 | AGTACCTA | 0.058
199 | AGTTAACA | 0.00248
200 | GTAAACAC | 0.113

Row | Sequence | PBM E-score
201 | CACTTTCA | -0.116
202 | GCATGACC | -0.00817
203 | GACCGTCA | -0.259
204 | CCCAGGAG | -0.0461
205 | CCAGGGCA | -0.0412
206 | ACGGGATA | 0.0764
207 | ATAAGGTC | 0.0363
208 | AGTACTTA | -0.0623
209 | AGCCAACG | -0.126
210 | AGCGAACT | -0.0232
211 | GACATATC | 0.21
212 | CAGAACAA | 0.0968
213 | CCTCGAGC | 0.0411
214 | AATGACCA | 0.0449
215 | AGTTCGAC | -0.0798
216 | CGTGCACA | -0.105
217 | TCGGAAAA | -0.0937
218 | GCTCCGCA | 0.087
219 | ATGCATTC | 0.0199
220 | CCCTCGAA | -0.109
221 | GCAACTTA | -0.113
222 | ACCACTAC | 0.0525
223 | GTGCTAAA | 0.0463
